Assay results published in article PMC4336329 (PLoS ONE, 2015).
About 2,200 (0.71%) of roughly 310,000 compounds showed an effect of 50% or more. Effects have a minus sign here. The list shows a part of the results.

Biological target: human ether-à-go-go-related gene (hERG) potassium channel (human, UniProt Q12809)
Test: primary screen, population patch clamp on CHO cells stably expressing hERG

human ether-à-go-go-related gene (hERG) potassium channel, sequence (Q12809 whole entry, looked up): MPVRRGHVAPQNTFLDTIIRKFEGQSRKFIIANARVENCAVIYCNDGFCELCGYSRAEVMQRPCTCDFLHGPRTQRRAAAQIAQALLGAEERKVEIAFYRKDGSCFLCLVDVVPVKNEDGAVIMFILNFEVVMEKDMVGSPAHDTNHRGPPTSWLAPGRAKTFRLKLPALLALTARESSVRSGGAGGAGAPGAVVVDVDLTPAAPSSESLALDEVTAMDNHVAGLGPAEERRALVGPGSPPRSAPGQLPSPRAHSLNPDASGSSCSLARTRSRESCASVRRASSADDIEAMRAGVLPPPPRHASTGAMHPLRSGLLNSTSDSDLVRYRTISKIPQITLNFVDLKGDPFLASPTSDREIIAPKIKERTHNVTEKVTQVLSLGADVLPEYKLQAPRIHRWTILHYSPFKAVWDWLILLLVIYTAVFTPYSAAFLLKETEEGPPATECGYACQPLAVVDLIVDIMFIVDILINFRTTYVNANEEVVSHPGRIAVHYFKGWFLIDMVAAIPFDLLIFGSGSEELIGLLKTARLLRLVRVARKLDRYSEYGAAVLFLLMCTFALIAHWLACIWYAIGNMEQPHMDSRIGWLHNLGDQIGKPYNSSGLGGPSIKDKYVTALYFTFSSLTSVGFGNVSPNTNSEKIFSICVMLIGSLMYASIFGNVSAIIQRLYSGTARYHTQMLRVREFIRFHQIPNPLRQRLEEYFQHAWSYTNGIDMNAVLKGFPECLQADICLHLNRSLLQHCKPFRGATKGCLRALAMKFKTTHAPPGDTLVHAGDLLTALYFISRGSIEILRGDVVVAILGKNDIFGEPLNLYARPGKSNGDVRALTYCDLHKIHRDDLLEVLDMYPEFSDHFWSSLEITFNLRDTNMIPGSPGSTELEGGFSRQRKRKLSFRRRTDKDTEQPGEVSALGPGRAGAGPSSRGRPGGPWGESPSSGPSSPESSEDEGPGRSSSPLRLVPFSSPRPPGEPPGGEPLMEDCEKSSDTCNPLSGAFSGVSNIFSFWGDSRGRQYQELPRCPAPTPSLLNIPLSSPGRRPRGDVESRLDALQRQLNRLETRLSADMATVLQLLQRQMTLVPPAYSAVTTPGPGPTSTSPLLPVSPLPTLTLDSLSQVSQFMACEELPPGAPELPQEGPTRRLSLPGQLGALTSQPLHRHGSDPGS

SMILES | hERG current change (%, negative = inhibition) at 1uM [%]
N#Cc1c(N2CCCC2)nc(N)c2c(N)nc(N3CCCC3)cc12 | 13.5
O=C(/C=C/c1ccco1)NCc1ccco1 | 15.8
N#Cc1ccc(/C=C(\C(=O)C(=O)O)c2ccc3ccccc3n2)cc1 | 10.4
O=[N+]([O-])c1cccc(-c2cc3ccccc3[nH]2)c1 | 16.7
Cc1ccc([N+](=O)[O-])c(OCC(O)CNC(C)(C)C)c1.Cl (centres unmarked) | 7.78
COc1ccc(CNC2c3ccccc3-c3ccccc32)cc1OC | -4.19
O=C(O)CSCC(=O)N1CCCN(c2ccc(C(F)(F)F)cn2)CC1 | 12.5
COc1ccccc1Nc1nc(-c2cccs2)cs1 | -0.33
c1ccc(Cn2cc(CN3CCCCO3)c(-c3ccc4c(c3)OCO4)n2)cc1 | 18.9
Cc1csc(=O)n1CC(=O)OCC(=O)NNC(=O)c1ccc(Cl)cc1 | 11.5
Clc1cc(Cl)c(Cl)c(Cl)c1Cl | 12
COc1ccc(C(=O)N2CCCC(c3nc(-c4ccc(C)o4)no3)C2)cc1OC (centres unmarked) | 2.41
CCC(=O)Nc1ccc(-c2nnc(SCC(=O)N3CCCCC3)n2C)cc1 | 6.91
O=C1CCN(Cc2ccccc2)CCN1CCO | 19.9
O=C(N=NC(=O)c1ccc2c(O)n(CC3CCCO3)c(O)c2c1)c1cccnc1 (centres unmarked) | 5.68
CCOc1ccccc1-c1nnc(CS(=O)(=O)c2ccccc2)o1 | -26.9
COCC(=O)Nc1nnc(SCC(=O)N2C(C)CCCC2C)s1 (centres unmarked) | 9.89
COc1ccc(OCCNC(=O)c2ccc(C)cc2)cc1 | 15.8
O=C(Cn1c(=O)oc2cc(S(=O)(=O)N3CCCC3)ccc21)NC1CCCc2ccccc21 (centres unmarked) | 6.47
Cc1ccc(NC(=O)C(=O)NCCOc2ccccc2Cl)cc1 | 13.9
COc1cc(-c2noc(-c3ccco3)n2)cc(OC)c1OC | 9.92
Nc1nnc(-c2cc3ccccc3oc2=O)s1 | 12
O=C(Nc1cccc(C(F)(F)F)c1)C(Sc1cccc[n+]1[O-])c1ccccc1 (centres unmarked) | 4.74

SMILES | hERG current change (%, negative = inhibition) at 1uM [%]
COc1cccc(C(=O)N/N=C/c2ccc(OC3CSC3)cc2)c1 | 12.7
O=C(NCCCN1CCCCC1)C1CCC(CNS(=O)(=O)c2cccc3nsnc23)CC1 (centres unmarked) | 3.81
COCCn1nnnc1CN1C2CCCC1CC(NC(C)=O)C2 (centres unmarked) | 3.87
O=C1CC(C(=O)N2CCN(c3ccccn3)CC2)CN1Cc1ccccc1Cl (centres unmarked) | -12.4
CCCCN(C)CCCNC(=O)c1cc(=O)[nH]c2ccc(S(=O)(=O)N3CCCCC3C)cc12 (centres unmarked) | 7.27
Cc1cc(NC(=O)CSCC(=O)Nc2ccc(Cl)c(C(F)(F)F)c2)no1 | -0.128
Clc1cccc(Nc2c3c(nc4ncnn24)CCC3)c1 | -10.1
Cc1ccc(N2C(=O)CC(N3CCN(c4ccccn4)CC3)C2=O)cc1 (centres unmarked) | -8.68
Cc1[nH]c2ccc(C(=O)N3CCCCC3)cc2c1C | -9.5
Cc1cc(NS(=O)(=O)c2ccc(NS(=O)(=O)c3ccc(Br)cc3)cc2)no1 | 6.95
CC(=O)c1ccc(Cc2ccc(C(C)=O)cc2)cc1 | 4.62
Cc1cc(C)n(CC(O)Cn2cnc3c2c(=O)n(C)c(=O)n3C)n1 (centres unmarked) | -0.188
COc1ccccc1OCC(=O)N(Cc1nc(-c2ccccc2)no1)C1CCCCC1 | 17.8
O=C(Nc1ccc([N+](=O)[O-])cc1)Nc1ccc2c(c1)OCCO2 | 17.8
CCOC(=O)c1ccc(NC(=S)N2CCCC(C)C2)cc1 (centres unmarked) | 9.53
CC(=O)Cc1nsc(NC(=O)c2ccc(-c3cc(Cl)ccc3Cl)o2)n1 | 11
Cc1ccc(-n2cc[nH]c2=S)c(C)c1 | 13.3
CSc1nc(C)c(CCOC(=O)c2cccc(C)c2)c(=O)[nH]1 | 19.9
Cc1cc(C)c(OCC(O)CN2CCN(c3ccccn3)CC2)c(C)c1.Cl (centres unmarked) | -15.1
CCn1c(SCC(=O)NC2CCCCC2)nnc1-c1cccnc1 | 17.1
Cc1cc(S(=O)(=O)NCC(c2ccc3c(c2)OCO3)N2CCOCC2)ccc1F (centres unmarked) | 4.01
COCn1c(-c2cccc(Br)c2)nc2ccccc21 | -3.47
COc1cc(NC(=O)c2cc(-c3cccc(O)c3)on2)cc(OC)c1OC | -5.74

SMILES | hERG current change (%, negative = inhibition) at 1uM [%]
COc1ccc(NC(=O)C(CC(C)C)NC(=O)C2CCCCC2)c(OC)c1 (centres unmarked) | 2.66
O=C(CCc1ccc(S(=O)(=O)NC2CCCCC2)cc1)N(Cc1ccccc1)Cc1ccccc1 | 8.06
COc1cc(N=c2oc3c(C)ncc(CO)c3cc2C(N)=O)cc(OC)c1OC | 5.57
CN(C)C1=NC[C@H](Cc2ccccc2)N1CCc1cccc(F)c1 | -24.1
CNc1ccc(/C=C/C(=O)c2cccc3ccccc23)cc1[N+](=O)[O-] | 7.91
CCOC(=O)c1c(C)nc2c(C#N)cnn2c1C | -28.5
CCn1nc(C)c(CN2CCc3c([nH]c4ccccc34)C2c2ccc(F)c(OC)c2)c1C (centres unmarked) | -5.11
O=C(CSc1nc2ccccc2n1S(=O)(=O)c1cccc([N+](=O)[O-])c1)NCc1cccs1 | 10
COc1cc(C(=O)OCC(=O)NC2CCS(=O)(=O)C2)c([N+](=O)[O-])cc1OC (centres unmarked) | 1.32
CCCCn1c(=O)[nH]c(=O)c2c1nc(-c1ccc(-c3ccc(F)cc3)o1)n2C | 2.23
Cc1nn(Cc2ccccc2)c(C)c1NC(=O)CCCn1nc([N+](=O)[O-])c(Cl)c1C | 3.32
CCN(CC)S(=O)(=O)c1ccc(C2CNC(=O)C2)cc1 (centres unmarked) | -53.8
O=[N+]([O-])c1ccc(COc2cccnc2)cc1 | -4.98
Cc1cc([N+](=O)[O-])ccc1NC(=O)CN1CCN(Cc2ccccc2)CC1 | -73.7
Cc1cc(OCC(=O)N(C(C)C)C(C)C)cc(C)c1Br | 1.1
Cc1ccc2oc(=O)n(CC(=O)OCCC(C)C)c2c1 | 14.1
Cc1noc2ncnc(N3CCN(c4cccc(Cl)c4)CC3)c12 | -15.1
Cc1ccc(NC(=O)c2cc3c(s2)CCCC3)cc1 | 1.24
Cc1cccc(Oc2ccccc2N)c1 | 2.89
Cc1cccc(N2CCN(S(=O)(=O)c3cccc4nonc34)CC2C)c1 (centres unmarked) | 12.5
COc1cccc(NC(=O)CN(C)C(=O)c2cccnc2Nc2cccc(C(F)(F)F)c2)c1 | 16.5
COc1cc(S(=O)(=O)NCc2ccncc2)c(OC)cc1Cl | 8.65
CCCC(=O)N1CC(=O)Nc2ccc(Br)cc2C1c1ccc(F)cc1 (centres unmarked) | 1.29

SMILES | hERG current change (%, negative = inhibition) at 1uM [%]
O=C(Nc1cccc(-c2cnc3ccccc3n2)c1)c1ccco1 | -21.6
CC(C)(C)C1CCc2onc(C(=O)Nc3cnn(Cc4ccc(F)cc4)c3)c2C1 (centres unmarked) | 11.3
COc1ccccc1-c1nc2ccccc2c(=O)n1NC(=O)c1cccs1 | 13
CN(C)C(/C=C/Nc1ccc(F)cc1)=C(C#N)C#N | 10.3
CCCN(CCC)CCCNC(=O)CC1Nc2ccccc2NC1=O (centres unmarked) | 7.84
CCCN1CCCc2ccccc21.Cl | 14.9
COCc1cc(C)nc(OCC(=O)N/N=C/c2ccc(-c3cc([N+](=O)[O-])ccc3C)o2)c1C#N | 1.12
O=C(O)CCc1nn2c3ccccc3n(CCN3CCCCC3)c2nc1=O | 4.19
CCOc1ccc2nc(NC(=O)COC)sc2c1 | 13.6
O=C(O)CCCCCN1C(=O)/C(=C\c2cn(-c3ccccc3)nc2-c2cccs2)SC1=S | 6
COc1ccc(C(=O)NC2CCCc3ccccc32)cc1 (centres unmarked) | 5.31
O=C(CN1CCC(Cc2ccccc2)CC1)NC(=O)NCc1ccccc1 | 5.43
Cc1ccccc1NC(=O)/C(C#N)=C\c1cn(CC(=O)O)c2ccccc12 | 13.1
CCN1CCN(CCCNC(=O)Cn2nc(C)n3nc(-c4ccccc4)cc3c2=O)CC1 | 15
CCn1c(-c2ccccc2)c(C(=O)CCl)c2ccccc21 | 14.8
CN1CCN(C(=O)N2c3ccccc3C=Cc3ccccc32)CC1 | -4.3
Cc1ccc(-n2c(Cl)c(Cl)[nH]c(=O)c2=O)cc1 | 4.01
CCCOC(=O)c1cccc(NC(=O)C(C)(C)C)c1 | 11.7
COc1ccc(NC(=O)c2cc3cc(OC)ccc3oc2=N)cc1 | 21.1
CCCOCc1ccc(O)c2ncccc12 | 5.95
CCCCNC(=O)COC(=O)c1ccc(F)cc1Cl | -15.7
O=C(CSc1nnc2ccc(-c3ccccn3)nn12)Nc1ccc(F)cc1F | 1.64
C[C@@H](C(=O)NCc1ccccc1)[C@@H]1C[C@@]1(C)[C@@H](NC(=O)OCc1ccccc1)c1ccccc1 | 3.9
